The test concerns the target T1, AtEXO70A1 (Arabidopsis thaliana, UniProt Q9LZD3).
T1 sequence (Q9LZD3 1-638): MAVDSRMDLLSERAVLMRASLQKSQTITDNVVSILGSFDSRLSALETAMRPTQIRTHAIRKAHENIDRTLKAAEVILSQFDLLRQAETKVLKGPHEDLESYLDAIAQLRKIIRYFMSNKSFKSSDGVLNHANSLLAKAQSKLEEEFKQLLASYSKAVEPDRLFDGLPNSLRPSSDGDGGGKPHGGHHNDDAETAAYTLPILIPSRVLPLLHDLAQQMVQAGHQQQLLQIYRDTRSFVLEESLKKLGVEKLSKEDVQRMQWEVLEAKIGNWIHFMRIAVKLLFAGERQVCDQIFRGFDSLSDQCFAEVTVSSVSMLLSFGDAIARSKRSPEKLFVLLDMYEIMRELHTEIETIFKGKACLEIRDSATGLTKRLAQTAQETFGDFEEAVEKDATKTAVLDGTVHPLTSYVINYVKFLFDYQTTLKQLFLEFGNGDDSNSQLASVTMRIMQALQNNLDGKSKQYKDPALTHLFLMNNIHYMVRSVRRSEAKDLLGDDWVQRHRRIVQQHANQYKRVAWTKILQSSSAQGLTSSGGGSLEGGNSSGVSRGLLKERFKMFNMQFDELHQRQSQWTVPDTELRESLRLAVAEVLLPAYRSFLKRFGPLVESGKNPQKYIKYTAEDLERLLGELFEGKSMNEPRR
As to conditions: 400 μM compound, pronase 1:3000 dilution. As to the method: The full-length AtEXO70A1 protein fused with the SUMO-His tag was purified (FIG. 8, lane 2) and tested for its interaction with analog 14 and AtEXO70A1 using the drug affinity responsive target stability (DARTS) assay that is based on the protection of receptor proteins by ligands from degradation by proteases (Lomenick et al., 2009).
To test the interaction between ES2 or analog 14 and EXO70 proteins, purified AtEXO70A1, MoEXO7O or BcEXO70 was used. 2.5 μg of purified protein was mixed with 2.5 μg of BSA in 200 μl reactions. The protein mixture was incubated with 2% DMSO, 400 μM ES2 or 400 μM analog 14 for 1 hour at room temperature with rotating. After incubation, each protein and chemical mixture was divided into 3 tubes. 1 μl pronase at 1:3000 or 1:10,000 dilutions from 10 mg/ml stock or 1 μl water was added to different aliquots. After 30 minutes of digestion, the reaction was terminated by adding SDS loading buffer and denaturing at 100° C. for 5 minutes. The samples were loaded to SDS-PAGE and the protein was detected using silver staining. The silver stained gel was scanned and the intensity of protein band was quantified using ImageJ.

For `COc1cc(/C=N/NC(=O)c2cccc(F)c2)cc(I)c1O` [ES2, endosidin2, reference compound], the “protection of AtEXO70A1 from degradation by pronase” value is listed as “protected AtEXO70A1 from degradation”.

With `O=C(N/N=C/c1cc(I)c(O)c(I)c1)c1cccc(F)c1` [analog 14], the “protection of AtEXO70A1 from degradation by pronase” value was “protected AtEXO70A1”.

For the origin of these results see patent US20200196599A1 (priority 2018, published 2020).
